Measured values from the supplement of paper PMC3334620.
The full ranking holds about 33,000 sequences; the median of “E-score (-0.5 to 0.5)” is about -0.011, and the highest 2% start at about 0.28. The list shows a part of the results.

target: T1, Gcr1 (UniProt P07261); assay: PBM E-score (8-mer binding enrichment) (E-score (-0.5 to 0.5)); higher = stronger / more preferred TF binding; most listed sequences are background and not binding sites; conditions: protein concentration: 100 nM; construct: GST-full length
T1 sequence: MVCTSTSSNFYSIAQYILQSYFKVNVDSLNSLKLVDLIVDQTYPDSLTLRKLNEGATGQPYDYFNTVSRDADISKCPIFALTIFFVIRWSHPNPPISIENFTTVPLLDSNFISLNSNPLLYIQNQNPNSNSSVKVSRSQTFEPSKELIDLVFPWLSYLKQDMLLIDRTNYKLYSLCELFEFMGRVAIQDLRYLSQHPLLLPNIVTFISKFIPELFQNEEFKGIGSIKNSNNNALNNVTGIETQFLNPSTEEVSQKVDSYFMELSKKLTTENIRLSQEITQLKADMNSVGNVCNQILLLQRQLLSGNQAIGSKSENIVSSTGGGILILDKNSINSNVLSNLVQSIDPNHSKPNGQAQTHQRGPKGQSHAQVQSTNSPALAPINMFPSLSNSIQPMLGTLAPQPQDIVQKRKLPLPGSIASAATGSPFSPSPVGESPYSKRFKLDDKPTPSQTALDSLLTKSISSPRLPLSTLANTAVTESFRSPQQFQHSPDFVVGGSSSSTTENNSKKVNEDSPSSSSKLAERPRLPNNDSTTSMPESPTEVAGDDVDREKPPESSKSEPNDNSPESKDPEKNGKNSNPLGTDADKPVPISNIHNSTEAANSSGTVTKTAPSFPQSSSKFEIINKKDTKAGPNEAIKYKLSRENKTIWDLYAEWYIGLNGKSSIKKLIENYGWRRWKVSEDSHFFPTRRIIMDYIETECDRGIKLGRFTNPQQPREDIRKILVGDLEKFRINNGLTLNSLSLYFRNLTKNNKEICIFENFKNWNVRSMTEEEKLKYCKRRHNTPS
In short: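 PURExpress in vitro transcription/translation supplied GST-tagged yeast transcription factors, either full-length or DNA-binding domain. Applied at about 100-200 nM to universal all-10-mer Agilent arrays double-stranded by primer extension, the bound protein was detected with fluorescent anti-GST. E-scores, modified Wilcoxon-Mann-Whitney statistics, were given by the Universal PBM Analysis Suite to ungapped eight-base words pooled with their reverse complements after masliner normalisation.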

In order of falling “PBM E-score” value:
1. GAGCGTCC  0.384
2. GAATCCCA  0.367
3. AGAAGCTG  0.348
4. CTTTGGAA  0.282
5. AGCTTCTG  0.245
6. CTAACTTC  0.239
7. CCAGCACC  0.235
8. AATGGTGC  0.208
9. CGTATTTA  0.202
10. AATTAGTG  0.199
11. GCTTCAAA  0.192
12. AATGTGCG  0.17
13. AATGTTAT  0.159
14. CAGGGCCC  0.158
15. CTAGAAGC  0.154
16. ACTCAAGT  0.152
17. GGCCAGTA  0.148
18. CTATTAAA  0.147
19. AATGGACG  0.143
20. AGATTTTG  0.135
21. CGGATATA  0.134
22. AGATCCCG  0.125
23. GGATCTTA  0.112
24. CTACAATC  0.0998
25. GGTTAACA  0.096
26. AGTGTAGG  0.0919
27. GGCACTGA  0.0877
28. GAAACCGC  0.0874
29. ACATCCGC  0.0717
30. AATATCTG  0.0703
31. ATTGTCCA  0.0701
32. AATGTTGG  0.0669
33. CAAAAAGC  0.0645
34. CACCTCTA  0.0633
35. CAACGCCC  0.0625
36. CGCGCGGC  0.0619
37. AACGTGCC  0.0609
38. ACCACCCC  0.0593
39. CGTAGCCC  0.0578
40. CAGGTCTC  0.0571
41. CCTGGCAC  0.0553
42. ACGTATCT  0.0512
43. CGCTGCTC  0.0496
44. ATTTAACG  0.0481
45. CACCCGCA  0.0465
46. TCGTTCAA  0.046
47. ACTTAAAG  0.0453
48. ACAGGAGA  0.0441
49. AACAACAT  0.0437
50. TAAACAAA  0.0404
51. ATCGCGTG  0.0392
52. AGGCTACA  0.0361
53. AGTAGAAC  0.0351
54. ATTCTTCA  0.0311
55. ACCTTAGA  0.0306
56. ATTGCTGC  0.0296
57. CCTTACCA  0.0258
58. GAAATTCA  0.0164
59. GACATAAC  0.0114
60. CCTTAATC  0.00958
61. AGAGTCGC  0.00386
62. ACTCTCAA  0.00305
63. AGGTTTAG  0.00287
64. AAGGTTAG  -0.00114
65. AAATTCGC  -0.00863
66. CGGAGTCA  -0.00995
67. AGAACATC  -0.0115
68. CTGTTAAC  -0.0199
69. AGCTTAAA  -0.0201
70. ATCATAAC  -0.0233
71. GTCGCGAC  -0.0332
72. ACAGATTA  -0.034
73. GGGCTACA  -0.0418
74. ACTGATTC  -0.0425
75. CAATACAG  -0.0441
76. ACTCCTAG  -0.0566
77. AACCTATG  -0.059
78. ATGACACC  -0.0655
79. CCGACAGG  -0.0659
80. CAGGGCCG  -0.0747
81. ACAAAGGC  -0.078
82. CCAGTAGA  -0.0842
83. AAGGGCCT  -0.086
84. AACAATTC  -0.0888
85. TGGGAGAA  -0.095
86. GCACTACA  -0.0953
87. CCAATGCC  -0.0992
88. CGGCTTGA  -0.105
89. TGCGGACA  -0.11
90. ATCGATTA  -0.11
91. GGGGCTGA  -0.111
92. ATGAGGGC  -0.119
93. CACAGAGC  -0.121
94. CCCGGCTA  -0.122
95. CAACCCTC  -0.126
96. CACGTGCA  -0.127
97. ATCTTAAC  -0.14
98. GGACCTCA  -0.149
99. CGGTAAGC  -0.151
100. TCGGAACA  -0.154
101. GCGCTTAC  -0.17
102. TATCCCGA  -0.18
103. AGTATAAC  -0.184
104. CGATCAGC  -0.189
105. CTTAGCAA  -0.2
106. AGCATTCG  -0.235
107. CCGCAAGC  -0.254
108. ATCAGCCG  -0.264
109. AGGGGGGA  -0.317
